# Experimental data from the supplement of paper PMC8728848.
# Some of the results follow.
# B1: PLU (Photorhabdus luminiscence) (protein)
# chain: HHHHHHENLYFQSSIVFASIDPRSNPLQTSSQNYVDIPGLKLDVSKYSNSPCLTALITLNIPTPYASGNNFPGGNFAIVTDQGEQLAYGGFTYSSKIPENSGRMPFTLVARYSLASNVSTIKAQWSNIRGSTVHIDSYASISAVIQCNQLV
# Tests used:
# Test in all cases: glycan array binding signal (z-score within array); higher = stronger binding
# Conditions in all cases: glycan notation: IUPAC condensed, linker removed
# [1] = target: Neu5Ac(a2-6)Gal(b1-4)GlcNAc(b1-3)Gal(b1-4)GlcNAc(b1-3)Gal(b1-4)GlcNAc(b1-2)Man(a1-3)[Neu5Ac(a2-6)Gal(b1-4)GlcNAc(b1-3)Gal(b1-4)GlcNAc(b1-3)Gal(b1-4)GlcNAc(b1-2)Man(a1-6)]GalNAc
# How it was run: (§1)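 Negative Z-scores can be read as non-binding. The Z-score is calculated within each array and then averaged across arrays of one protein sequence at different concentrations or buffers and across linkers. Arrays, 3228 in all, were curated from the Consortium for Functional Glycomics database and kept only where the protein sequence was available.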
# [2] = target: Neu5Ac(a2-6)Gal(b1-4)GlcNAc(b1-3)Gal(b1-4)GlcNAc(b1-3)GalNAc
# How it was run: as §1
# [3] = target: Neu5Ac(a2-6)Gal(b1-4)GlcNAc(b1-3)Gal(b1-4)GlcNAc(b1-3)[Neu5Ac(a2-6)Gal(b1-4)GlcNAc(b1-3)Gal(b1-4)GlcNAc(b1-6)]GalNAc
# How it was run: as §1
# [4] = target: Neu5Ac(a2-6)Gal(b1-4)GlcNAc(b1-3)Gal(b1-4)GlcNAc(b1-6)[Gal(b1-3)]GalNAc
# How it was run: as §1
# [5] = target: Neu5Ac(a2-6)Gal(b1-4)GlcNAc(b1-3)Gal(b1-4)[Fuc(a1-3)]GlcNAc(b1-3)Gal(b1-4)[Fuc(a1-3)]GlcNAc
# How it was run: as §1
# [6] = target: Neu5Ac(a2-6)Gal(b1-4)GlcNAc(b1-3)GalNAc
# How it was run: as §1
# [7] = target: Neu5Ac(a2-6)Gal(b1-4)GlcNAc(b1-3)[Neu5Ac(a2-6)Gal(b1-4)GlcNAc(b1-6)]GalNAc
# How it was run: as §1
# [8] = target: Neu5Ac(a2-6)Gal(b1-4)GlcNAc(b1-6)GalNAc
# How it was run: as §1
# [9] = target: Neu5Ac(a2-6)Gal(b1-4)GlcNAc(b1-6)[Gal(b1-3)GlcNAc(b1-3)]Gal(b1-4)Glc
# How it was run: as §1
# [10] = target: Neu5Ac(a2-6)Gal(b1-4)GlcNAc(b1-6)[Gal(b1-3)]GalNAc
# How it was run: as §1
# [11] = target: Neu5Ac(a2-6)Gal(b1-4)GlcNAc6S
# How it was run: as §1
# Neu5Ac(a2-6)GalNAc = target: Neu5Ac(a2-6)GalNAc
# How it was run: as §1
# [12] = target: Neu5Ac(a2-6)GalNAc(b1-4)GlcNAc
# How it was run: as §1
# [13] = target: Neu5Ac(a2-6)GalNAc(b1-4)GlcNAc6S
# How it was run: as §1
# [14] = target: Neu5Ac(a2-6)GlcNAc(b1-4)GlcNAc
# How it was run: as §1
# [15] = target: Neu5Ac(a2-6)GlcNAc(b1-4)GlcNAc(b1-4)GlcNAc
# How it was run: as §1
# Neu5Ac(a2-8)Neu5Ac = target: Neu5Ac(a2-8)Neu5Ac
# How it was run: as §1
# [16] = target: Neu5Ac(a2-8)Neu5Ac(a2-3)Gal(b1-3)GalNAc(b1-4)[Neu5Ac(a2-3)]Gal(b1-4)Glc
# How it was run: as §1
# [17] = target: Neu5Ac(a2-8)Neu5Ac(a2-3)Gal(b1-3)GalNAc(b1-4)[Neu5Ac(a2-8)Neu5Ac(a2-3)]Gal(b1-4)Glc
# How it was run: as §1
# [18] = target: Neu5Ac(a2-8)Neu5Ac(a2-3)Gal(b1-4)Glc
# How it was run: as §1
# [19] = target: Neu5Ac(a2-8)Neu5Ac(a2-3)Gal(b1-4)GlcNAc
# How it was run: as §1
# [20] = target: Neu5Ac(a2-8)Neu5Ac(a2-3)[Gal(b1-3)GalNAc(b1-4)]Gal(b1-4)Glc
# How it was run: as §1
# [21] = target: Neu5Ac(a2-8)Neu5Ac(a2-3)[GalNAc(b1-4)]Gal(b1-4)Glc
# How it was run: as §1
# [22] = target: Neu5Ac(a2-8)Neu5Ac(a2-8)Neu5Ac
# How it was run: as §1
# [23] = target: Neu5Ac(a2-8)Neu5Ac(a2-8)Neu5Ac(a2-3)Gal(b1-4)Glc
# How it was run: as §1
# [24] = target: Neu5Ac(a2-8)Neu5Ac(a2-8)Neu5Ac(a2-3)[Gal(b1-3)GalNAc(b1-4)]Gal(b1-4)Glc
# How it was run: as §1
# [25] = target: Neu5Ac(a2-8)Neu5Ac(a2-8)Neu5Ac(a2-3)[GalNAc(b1-4)]Gal(b1-4)Glc
# How it was run: as §1
# [26] = target: Neu5Ac(a2-8)Neu5Ac(a2-8)Neu5Ac(a2-8)Neu5Ac(a2-3)[GalNAc(b1-4)]Gal(b1-4)Glc
# How it was run: as §1
# [27] = target: Neu5Ac(a2-8)Neu5Gc(a2-3)Gal(b1-4)GlcNAc
# How it was run: as §1
# [28] = target: Neu5Ac(b2-6)Gal(b1-4)GlcNAc
# How it was run: as §1
# Neu5Ac(b2-6)GalNAc = target: Neu5Ac(b2-6)GalNAc
# How it was run: as §1
# [29] = target: Neu5Ac9Ac(a2-3)Gal(b1-3)GlcNAc
# How it was run: as §1
# [30] = target: Neu5Ac9Ac(a2-3)Gal(b1-4)GlcNAc
# How it was run: as §1
# [31] = target: Neu5Ac9Ac(a2-6)Gal(b1-4)GlcNAc
# How it was run: as §1
# [32] = target: Neu5Gc(a2-3)Gal(b1-3)GlcNAc
# How it was run: as §1
# [33] = target: Neu5Gc(a2-3)Gal(b1-3)[Fuc(a1-4)]GlcNAc
# How it was run: as §1
# Neu5Gc(a2-3)Gal(b1-4)Glc = target: Neu5Gc(a2-3)Gal(b1-4)Glc
# How it was run: as §1
# [34] = target: Neu5Gc(a2-3)Gal(b1-4)GlcNAc
# How it was run: as §1
# [35] = target: Neu5Gc(a2-3)Gal(b1-4)GlcNAc(b1-3)Gal(b1-4)GlcNAc(b1-2)Man(a1-3)[Neu5Gc(a2-3)Gal(b1-4)GlcNAc(b1-3)Gal(b1-4)GlcNAc(b1-2)Man(a1-6)]Man(b1-4)GlcNAc(b1-4)GlcNAc
# How it was run: as §1
# [36] = target: Neu5Gc(a2-3)Gal(b1-4)[Fuc(a1-3)]GlcNAc
# How it was run: as §1
# [37] = target: Neu5Gc(a2-6)Gal(b1-4)GlcNAc
# How it was run: as §1
# Neu5Gc(a2-6)GalNAc = target: Neu5Gc(a2-6)GalNAc
# How it was run: as §1
# [38] = target: Neu5Gc(a2-8)Neu5Ac(a2-3)Gal(b1-4)GlcNAc
# How it was run: as §1
# [39] = target: Neu5Gc(a2-8)Neu5Gc(a2-3)Gal(b1-4)GlcNAc
# How it was run: as §1
# [40] = target: Neu5Gc(a2-8)Neu5Gc(a2-3)Gal(b1-4)GlcNAc(b1-3)Gal(b1-4)GlcNAc
# How it was run: as §1
binder,measurement,setting,value
B1,glycan array binding signal (z-score),[1],-0.162
same,glycan array binding signal (z-score),[2],-0.258
same,glycan array binding signal (z-score),[3],-0.12
same,glycan array binding signal (z-score),[4],-0.27
same,glycan array binding signal (z-score),[5],-0.212
same,glycan array binding signal (z-score),[6],-0.291
same,glycan array binding signal (z-score),[7],-0.278
same,glycan array binding signal (z-score),[8],-0.292
same,glycan array binding signal (z-score),[9],-0.335
same,glycan array binding signal (z-score),[10],-0.123
same,glycan array binding signal (z-score),[11],-0.322
same,glycan array binding signal (z-score),Neu5Ac(a2-6)GalNAc,-0.336
same,glycan array binding signal (z-score),[12],-0.203
same,glycan array binding signal (z-score),[13],-0.252
same,glycan array binding signal (z-score),[14],-0.295
same,glycan array binding signal (z-score),[15],-0.12
same,glycan array binding signal (z-score),Neu5Ac(a2-8)Neu5Ac,-0.287
same,glycan array binding signal (z-score),[16],-0.28
same,glycan array binding signal (z-score),[17],-0.228
same,glycan array binding signal (z-score),[18],-0.288
same,glycan array binding signal (z-score),[19],-0.232
same,glycan array binding signal (z-score),[20],-0.253
same,glycan array binding signal (z-score),[21],-0.242
same,glycan array binding signal (z-score),[22],-0.288
same,glycan array binding signal (z-score),[23],-0.267
same,glycan array binding signal (z-score),[24],-0.236
same,glycan array binding signal (z-score),[25],-0.227
same,glycan array binding signal (z-score),[26],-0.214
same,glycan array binding signal (z-score),[27],-0.399
same,glycan array binding signal (z-score),[28],-0.266
same,glycan array binding signal (z-score),Neu5Ac(b2-6)GalNAc,-0.346
same,glycan array binding signal (z-score),[29],-0.404
same,glycan array binding signal (z-score),[30],-0.263
same,glycan array binding signal (z-score),[31],-0.249
same,glycan array binding signal (z-score),[32],-0.325
same,glycan array binding signal (z-score),[33],-0.32
same,glycan array binding signal (z-score),Neu5Gc(a2-3)Gal(b1-4)Glc,-0.166
same,glycan array binding signal (z-score),[34],-0.219
same,glycan array binding signal (z-score),[35],-0.221
same,glycan array binding signal (z-score),[36],-0.228
same,glycan array binding signal (z-score),[37],-0.228
same,glycan array binding signal (z-score),Neu5Gc(a2-6)GalNAc,-0.326
same,glycan array binding signal (z-score),[38],-0.285
same,glycan array binding signal (z-score),[39],-0.333
same,glycan array binding signal (z-score),[40],-0.32
